Assay results taken from paper PMC9911399, “Two distinct binding modes provide the RNA-binding protein RbFox with extraordinary sequence specificity”.
Changes are numbered by the printed parent chain; changes in the protein carry UniProt numbers. Some of the results follow.

T1: RBFOX1 RRM (Homo sapiens, UniProt Q9NWB1 109-208)
T1 sequence: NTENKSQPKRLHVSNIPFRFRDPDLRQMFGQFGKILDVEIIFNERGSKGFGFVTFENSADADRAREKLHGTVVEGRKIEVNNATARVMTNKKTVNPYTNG

B1: UCGCAAA (DNA:RNA)
RNA: GGGAGACCGGAAUUCAGAUUGUCCUCGCAAAUUAAAUCCCGUCGUAGCCACCA
DNA 1: CAATCTGAATTCCGGTCTCCC
DNA 2: TGGTGGCTACGACGGGATT
B2: GACCACC (DNA:RNA)
RNA: B1 RNA with U25G, C26A, G27C, A30C, A31C
DNA 1: CAATCTGAATTCCGGTCTCCC
DNA 2: TGGTGGCTACGACGGGATT
B3: CAAAUGG (DNA:RNA)
RNA: GGGAGACCGGAAUUCAGAUUGUCCCAAAUGGUUAAAUCCCGUCGUAGCCACCA
DNA 1: CAATCTGAATTCCGGTCTCCC
DNA 2: TGGTGGCTACGACGGGATT
B4: UCUGAAG (DNA:RNA)
RNA: B1 RNA with G27U, C28G, A31G
DNA 1: CAATCTGAATTCCGGTCTCCC
DNA 2: TGGTGGCTACGACGGGATT
B5: CUUUAGA (DNA:RNA)
RNA: B3 RNA with A26U, A27U, A28U, U29A, G31A
DNA 1: CAATCTGAATTCCGGTCTCCC
DNA 2: TGGTGGCTACGACGGGATT
B6: UGGACCG (DNA:RNA)
RNA: B3 RNA with C25U, A26G, A27G, U29C, G30C
DNA 1: CAATCTGAATTCCGGTCTCCC
DNA 2: TGGTGGCTACGACGGGATT
B7: AGGUCUG (DNA:RNA)
RNA: B3 RNA with C25A, A26G, A27G, A28U, U29C, G30U
DNA 1: CAATCTGAATTCCGGTCTCCC
DNA 2: TGGTGGCTACGACGGGATT
B8: UCCGUAA (DNA:RNA)
RNA: B1 RNA with G27C, C28G, A29U
DNA 1: CAATCTGAATTCCGGTCTCCC
DNA 2: TGGTGGCTACGACGGGATT
B9: UUUUAUA (DNA:RNA)
RNA: B1 RNA with C26U, G27U, C28U, A30U
DNA 1: CAATCTGAATTCCGGTCTCCC
DNA 2: TGGTGGCTACGACGGGATT
B10: AAAUACU (DNA:RNA)
RNA: B3 RNA with C25A, A28U, U29A, G30C, G31U
DNA 1: CAATCTGAATTCCGGTCTCCC
DNA 2: TGGTGGCTACGACGGGATT
B11: CACCGGG (DNA:RNA)
RNA: B3 RNA with A27C, A28C, U29G
DNA 1: CAATCTGAATTCCGGTCTCCC
DNA 2: TGGTGGCTACGACGGGATT
B12: AGGCUGA (DNA:RNA)
RNA: B1 RNA with U25A, C26G, A29U, A30G
DNA 1: CAATCTGAATTCCGGTCTCCC
DNA 2: TGGTGGCTACGACGGGATT
B13: CUGCCUU (DNA:RNA)
RNA: B1 RNA with U25C, C26U, A29C, A30U, A31U
DNA 1: CAATCTGAATTCCGGTCTCCC
DNA 2: TGGTGGCTACGACGGGATT
B14: AGGAGAA (DNA:RNA)
RNA: B1 RNA with U25A, C26G, C28A, A29G
DNA 1: CAATCTGAATTCCGGTCTCCC
DNA 2: TGGTGGCTACGACGGGATT
B15: UUAAGCG (DNA:RNA)
RNA: B3 RNA with C25U, A26U, U29G, G30C
DNA 1: CAATCTGAATTCCGGTCTCCC
DNA 2: TGGTGGCTACGACGGGATT
B16: GCAGUGA (DNA:RNA)
RNA: B3 RNA with C25G, A26C, A28G, G31A
DNA 1: CAATCTGAATTCCGGTCTCCC
DNA 2: TGGTGGCTACGACGGGATT
B17: GGCCGGU (DNA:RNA)
RNA: B3 RNA with C25G, A26G, A27C, A28C, U29G, G31U
DNA 1: CAATCTGAATTCCGGTCTCCC
DNA 2: TGGTGGCTACGACGGGATT
B18: UAGGGGA (DNA:RNA)
RNA: B1 RNA with C26A, C28G, A29G, A30G
DNA 1: CAATCTGAATTCCGGTCTCCC
DNA 2: TGGTGGCTACGACGGGATT
B19: ACAGCCG (DNA:RNA)
RNA: B3 RNA with C25A, A26C, A28G, U29C, G30C
DNA 1: CAATCTGAATTCCGGTCTCCC
DNA 2: TGGTGGCTACGACGGGATT
B20: GUGCUAG (DNA:RNA)
RNA: B1 RNA with U25G, C26U, A29U, A31G
DNA 1: CAATCTGAATTCCGGTCTCCC
DNA 2: TGGTGGCTACGACGGGATT
B21: GUCGGUC (DNA:RNA)
RNA: GGGAGACCGGAAUUCAGAUUGUCCGUCGGUCUUAAAUCCCGUCGUAGCCACCA
DNA 1: CAATCTGAATTCCGGTCTCCC
DNA 2: TGGTGGCTACGACGGGATT
B22: ACGGUAU (DNA:RNA)
RNA: B1 RNA with U25A, C28G, A29U, A31U
DNA 1: CAATCTGAATTCCGGTCTCCC
DNA 2: TGGTGGCTACGACGGGATT
B23: UGCUACG (DNA:RNA)
RNA: B1 RNA with C26G, G27C, C28U, A30C, A31G
DNA 1: CAATCTGAATTCCGGTCTCCC
DNA 2: TGGTGGCTACGACGGGATT
B24: GCUUAGA (DNA:RNA)
RNA: B1 RNA with U25G, G27U, C28U, A30G
DNA 1: CAATCTGAATTCCGGTCTCCC
DNA 2: TGGTGGCTACGACGGGATT
B25: GGGAACG (DNA:RNA)
RNA: B3 RNA with C25G, A26G, A27G, U29A, G30C
DNA 1: CAATCTGAATTCCGGTCTCCC
DNA 2: TGGTGGCTACGACGGGATT
B26: ACCUACC (DNA:RNA)
RNA: B21 RNA with G25A, U26C, G28U, G29A, U30C
DNA 1: CAATCTGAATTCCGGTCTCCC
DNA 2: TGGTGGCTACGACGGGATT
B27: ACGACGU (DNA:RNA)
RNA: B3 RNA with C25A, A26C, A27G, U29C, G31U
DNA 1: CAATCTGAATTCCGGTCTCCC
DNA 2: TGGTGGCTACGACGGGATT
B28: UGCGAGC (DNA:RNA)
RNA: B21 RNA with G25U, U26G, G29A, U30G
DNA 1: CAATCTGAATTCCGGTCTCCC
DNA 2: TGGTGGCTACGACGGGATT
B29: UUCAAUA (DNA:RNA)
RNA: B21 RNA with G25U, G28A, G29A, C31A
DNA 1: CAATCTGAATTCCGGTCTCCC
DNA 2: TGGTGGCTACGACGGGATT
B30: AACACUC (DNA:RNA)
RNA: B21 RNA with G25A, U26A, G28A, G29C
DNA 1: CAATCTGAATTCCGGTCTCCC
DNA 2: TGGTGGCTACGACGGGATT
B31: GCGAUAC (DNA:RNA)
RNA: B1 RNA with U25G, C28A, A29U, A31C
DNA 1: CAATCTGAATTCCGGTCTCCC
DNA 2: TGGTGGCTACGACGGGATT

What follows are binders tested against T1, RBFOX1 RRM (assay: EMSA; HiTS-Eq, 1 nM pool, 10 min; buffer printed only for the single-RNA assays: 10 mM Tris pH 7.5, 150 mM NaCl, 3.4 mM EDTA, 0.001% NP-40, 30 C). Conditions: tags: His6 N-terminal (pET28a); label: 5' 32P.
In short: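 Purified wild-type or mutant RbFox RRM at increasing concentrations was equilibrated with 1 nM of 5′-radiolabelled RNA carrying 7 randomized nucleotides for 10 min in 50 µL. Unbound RNA was separated by 8% native PAGE and sequenced. Relative association constants came from read-count changes of each RNA species compared with the control reaction, normalised to the cognate motif.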
B1 was tested, and the binding signal was 0.00754 KA relative to UGCAUGU. With B2 the binding signal was 0.00274 KA relative to UGCAUGU. In the case of B3, the binding signal is reported as 0.00705 KA relative to UGCAUGU. With B4 the binding signal was 0.0166 KA relative to UGCAUGU. In the case of B5, the binding signal is reported as 0.00768 KA relative to UGCAUGU. In the case of B6, the binding signal is reported as 0.0269 KA relative to UGCAUGU. In the case of B7, the binding signal is reported as 0.0219 KA relative to UGCAUGU. In the case of B8, the binding signal is reported as 0.00371 KA relative to UGCAUGU. B9 was tested, and the binding signal was 0.0021 KA relative to UGCAUGU. B10 was tested, and the binding signal was 0.00265 KA relative to UGCAUGU. In the case of B11, the binding signal is reported as 0.00514 KA relative to UGCAUGU. B12 was tested, and the binding signal was 0.0153 KA relative to UGCAUGU. For B13, the binding signal was 0.0102 KA relative to UGCAUGU. In the case of B14, the binding signal is reported as 0.0164 KA relative to UGCAUGU. With B15 the binding signal was 0.0153 KA relative to UGCAUGU. With B16 the binding signal was 0.0116 KA relative to UGCAUGU. In the case of B17, the binding signal is reported as 0.0275 KA relative to UGCAUGU. B18 was tested, and the binding signal was 0.00576 KA relative to UGCAUGU. With B19 the binding signal was 0.00101 KA relative to UGCAUGU. B20 was tested, and the binding signal was 0.0307 KA relative to UGCAUGU. With B21 the binding signal was 0.0118 KA relative to UGCAUGU. In the case of B22, the binding signal is reported as 0.0105 KA relative to UGCAUGU. B23 was tested, and the binding signal was 0.0218 KA relative to UGCAUGU. In the case of B24, the binding signal is reported as 0.0147 KA relative to UGCAUGU. In the case of B25, the binding signal is reported as 0.0367 KA relative to UGCAUGU. B26 was tested, and the binding signal was 0.000543 KA relative to UGCAUGU. In the case of B27, the binding signal is reported as 0.00603 KA relative to UGCAUGU. With B28 the binding signal was 0.0213 KA relative to UGCAUGU. In the case of B29, the binding signal is reported as 0.000788 KA relative to UGCAUGU. B30 was tested, and the binding signal was 0.000919 KA relative to UGCAUGU. For B31, the binding signal was 0.0101 KA relative to UGCAUGU.
